# Assay results reported in PMC8713996, “An anti-tuberculosis compound screen using a zebrafish infection model identifies an aspartyl-tRNA synthetase inhibitor” (Disease Models & Mechanisms, 2021).
# Experiments:
# [1] = system: M. marinum M^USA; assay: microbe, parasite or virus in culture; format: cell-based, Mycobacterium marinum
# [2] = system: M. tuberculosis H37Rv; assay: microbe, parasite or virus in culture; format: cell-based, Mycobacterium tuberculosis
# [3] = system: M. marinum-tdTomato yolk-infected zebrafish embryos; details: in vivo
# [4] = system: Acinetobacter baumannii; assay: MIC by optical density, Acinetobacter baumannii
# [5] = system: THP-1 cell line; details: human
# [6] = system: M. marinum wild type transformed with aspS or mmpL13 expression vectors; assay: microbe, parasite or virus in culture; format: cell-based; details: for MIC90: Mycobacterium marinum
# [7] = system: Mmar-R-TBA161-C (aspS R168G); format: cell-based
# [8] = system: M. marinum-tdTomato yolk-infected zebrafish embryos; details: yolk infection with 1000 CFU, waterborne treatment from 1 dpi
# [9] = system: Mycobacterium abscessus; assay: microbe, parasite or virus in culture; format: cell-based; details: Mycobacteroides abscessus
smiles,measurement,setting,value
O=C(O)c1ccc(Nc2nc(-c3cccs3)cs2)cc1O [GSK93A],No activity against M. marinum in culture up to,[1],> 40 µM
same,"Activity against Mtb in vitro, fold lower",[2],15 fold
"O=c1c2cc(Cl)ccc2oc2nc3n(c(=O)c12)CCCS3 [TBA161, 9-chloro-3,4-dihydro-chromeno[2′,3′:4,5]pyrimido[2,1-b][1,3]thiazine-6,7-dione]","Bacterial load in infected embryos, dose-response",[3],among the four most active compounds
"O=c1c2cc(Cl)cc(Cl)c2oc2nc3n(c(=O)c12)CCCS3 [TBA161-C, 9,11-dichloro-3,4-dihydro-chromeno[2′,3′:4,5]pyrimido[2,1-b][1,3]thiazine-6,7-dione]",MIC90,[4],> 80 µM
same,TD50,[5],> 40 µM
same,Not cytotoxic up to,[5]; 3 days,> 40 µM
same,Susceptibility of M. marinum overexpressing wild-type or mutated mmpL13 (P502R),[6]; 4 days,did not affect the susceptibility
same,MIC90,"[6]; 96 h, read-out: MIC90, M. marinum overexpressing mutated aspS (aspSMtbF526L)",> 40 µM
same,MIC90,"[6]; read-out: MIC90, M. marinum with genome-integrated aspSMtbF526L",> 40 µM
same,"Increase of MIC90, M. marinum overexpressing wild-type aspS vs wild-type strain",[6]; aspSMtb,fivefold
same,MIC90 of resistant M. marinum strains compared to the parental strain,[7],more than tenfold higher
same,Protective efficacy (survival of infected embryos),[8],highest protective efficacy
same,MIC90,[9],> 40 µM
"CSc1nc2oc3ccc(Cl)cc3c(=O)c2c(=O)n1C(C)C [TBA161-D, 7-chloro-3-isopropyl-2-(methylsulfanyl)-chromeno[2,3-d]pyrimidine-4,5-dione]","Bacterial load in infected embryos, dose-response",[3],all derivatives except TBA161-D showed a significant reduction

# Where two headings read alike, the source gives them in different places.
